From article PMC4336329 (PLoS ONE, 2015)
The whole screen tested about 310,000 compounds, of which about 2,200 (0.71%) showed an effect of 50% or more. The effect is printed as a negative number. Some of the results follow.

biological target: human ether-à-go-go-related gene (hERG) potassium channel (human, UniProt Q12809); assay: primary screen, population patch clamp on CHO cells stably expressing hERG
Sequence (Q12809 whole entry, looked up): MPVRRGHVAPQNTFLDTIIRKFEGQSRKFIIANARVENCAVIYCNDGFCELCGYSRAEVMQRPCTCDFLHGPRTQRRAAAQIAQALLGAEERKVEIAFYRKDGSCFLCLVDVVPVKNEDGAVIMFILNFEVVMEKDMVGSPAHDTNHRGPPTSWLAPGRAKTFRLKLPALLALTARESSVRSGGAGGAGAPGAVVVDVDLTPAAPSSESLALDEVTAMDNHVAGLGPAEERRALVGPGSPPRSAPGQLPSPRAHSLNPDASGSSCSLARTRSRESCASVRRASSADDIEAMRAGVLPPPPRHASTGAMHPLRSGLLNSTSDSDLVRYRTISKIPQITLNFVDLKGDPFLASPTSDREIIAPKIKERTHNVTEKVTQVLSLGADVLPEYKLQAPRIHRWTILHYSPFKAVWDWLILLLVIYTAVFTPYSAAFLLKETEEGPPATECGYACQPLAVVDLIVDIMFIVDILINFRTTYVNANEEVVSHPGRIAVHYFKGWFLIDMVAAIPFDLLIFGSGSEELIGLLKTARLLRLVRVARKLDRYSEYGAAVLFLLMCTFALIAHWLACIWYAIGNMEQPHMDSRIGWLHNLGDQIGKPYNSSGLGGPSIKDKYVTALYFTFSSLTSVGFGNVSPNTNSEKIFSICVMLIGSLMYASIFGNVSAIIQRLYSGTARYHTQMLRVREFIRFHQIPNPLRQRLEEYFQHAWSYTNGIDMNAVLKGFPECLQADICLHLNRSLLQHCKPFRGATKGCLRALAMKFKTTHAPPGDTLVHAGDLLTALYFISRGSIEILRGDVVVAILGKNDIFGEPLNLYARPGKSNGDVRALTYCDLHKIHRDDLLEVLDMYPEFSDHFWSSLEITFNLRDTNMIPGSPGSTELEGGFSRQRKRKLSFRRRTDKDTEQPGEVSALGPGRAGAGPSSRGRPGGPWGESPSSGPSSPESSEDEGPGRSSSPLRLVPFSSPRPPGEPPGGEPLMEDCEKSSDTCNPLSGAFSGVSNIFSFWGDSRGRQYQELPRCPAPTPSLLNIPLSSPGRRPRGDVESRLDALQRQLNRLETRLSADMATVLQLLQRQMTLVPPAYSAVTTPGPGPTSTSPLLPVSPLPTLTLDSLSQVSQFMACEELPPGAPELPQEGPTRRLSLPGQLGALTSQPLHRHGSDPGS

Compound | hERG current change (%, negative = inhibition) at 1uM
Cc1ccc(C(=O)N/C(=C/c2cccs2)C(=O)N2CCCCCC2)cc1 | -13.9%
COc1ccc2[nH]c(=O)c(CN(C(=O)NC3CCCCC3)C3CCCCC3)cc2c1 | -1.05%
CCc1c(O)c(/C(C)=N\O)c(=O)n(-c2ccccc2)c1-c1ccccc1 | 8.81%
Cc1cccc(C(=O)Nc2ccc(C(=O)N/N=C/c3ccc(C)o3)cc2)c1 | 10.9%
Cc1ccc(C(=O)OCC(=O)NC2CC2)cc1S(=O)(=O)N1CCOCC1 | 16.7%
CCn1c(CNC(=O)c2ccco2)nnc1SCC(=O)c1ccccc1 | 9.19%
O=C(CSc1ncnc2c1oc1ccccc12)Nc1cccc(C(F)(F)F)c1 | 13.5%
CCCOc1ccc(-c2nnn(CC(=O)c3ccc4c(c3)OCCO4)n2)cc1 | 12%
COCC1CCN(Cc2cn[nH]c2-c2ccc(OC)c(F)c2)C1 (stereo not shown) | 3.17%
COc1ccc(C(=O)C[n+]2ccc3c(c2)nnn3-c2ccccc2)cc1.[Br-] | -12%
Cc1ccc(-c2noc(C3CCCN(C(=O)c4cccc(Cl)c4)C3)n2)o1 (stereo not shown) | -7.5%
C=CCNC(=O)c1ccc(C)cc1Cl | -6.83%
COc1ccc(CN(C(=O)CNC(=O)c2ccco2)C(C(=O)NCC2CCCO2)c2ccc(OC)c(OC)c2)cc1 (stereo not shown) | 9.92%
O=C(O)C1C2CCC(O2)C1C(=O)Nc1ccc(F)c(Cl)c1 (stereo not shown) | 22.8%
CN1CCN(C(=O)C2C3C=CC(C3)C2C(=O)O)CC1 (stereo not shown) | 5.05%
CNC(=S)N(Cc1cccs1)Cc1cc2cc(OC)c(OC)cc2[nH]c1=O | 1.23%
COc1ccc(C(=O)n2nc(C)cc2Nc2ccccc2)cc1 | 12.7%
C[C@@H]1CCC[C@@]2(O[C@@H](CCO)C[C@@H](O)[C@@H]2O)O1 | 7.36%
COc1ccc(-c2ccc(CCC(=O)O)n2-c2ccccc2O)cc1 | 13.7%
CCc1ccc(Oc2ncnc(N)c2[N+](=O)[O-])cc1 | 10.8%
O=c1[nH]c(-c2cccnc2)nc2sc(-c3ccccc3)cc12 | 8.73%
COc1ccc(-c2ccc(OC)cc2C(=O)O)cc1 | 2.93%
CCN1CCc2c(sc(NC(=S)NC(=O)c3ccc(Cl)cc3)c2C(N)=O)C1 | 0.909%
Cc1ccc(-n2cc(-c3ccccc3)c3c(NN4CCOCC4)ncnc32)cc1 | 6.63%
CCOC(=O)c1cccc(NC(=O)c2ccc3c(c2)C(=O)N(CC2CCCO2)C3=O)c1 (stereo not shown) | -2.27%
COc1cccc(NC(=O)COC(=O)c2nc(Cl)ccc2Cl)c1 | 17.6%
O=C(c1ccc(CS(=O)(=O)c2ccc(Br)cc2)o1)N1CCN(c2ccccn2)CC1 | -8.42%
CCN(CC)C(=O)C(=O)Nc1ccc(F)c(Cl)c1 | 11.7%

Compound | hERG current change (%, negative = inhibition) at 1uM
Nc1nonc1C(=O)NCCNS(=O)(=O)c1ccc(F)cc1 | 11.5%
CC1=C(C(=O)OCc2ccccc2)C(c2ccsc2)C(C#N)=C(N)O1 (stereo not shown) | -5.08%
CC1(c2nnc(-c3ccc(F)cc3)o2)CC(c2c(Cl)cccc2Cl)=NO1 (stereo not shown) | -4.95%
COc1ccc(C(=O)CCNc2ccc(C)c(Cl)c2)cc1 | -2.3%
Brc1ccc(COc2cccc3cccnc23)cc1 | 9.22%
CCOC(=O)N1CCN(C(=O)/C=C/c2ccc(OC)cc2)CC1 | -0.69%
CCNC(=O)c1sc(=S)n(CC)c1N | 4.57%
CC(=O)c1ccc2c(ccc3ccccc32)c1 | 20.6%
Cc1cc(N/C(=N/S(=O)(=O)c2ccc(F)cc2)c2ccccc2)n(-c2ccccc2)n1 | 12.9%
C[C@H]1O[C@H](O[C@H]2[C@H](O)[C@@H](O)[C@@H](O[C@H]3[C@H](O)[C@@H](O)C(O)O[C@@H]3CO)O[C@@H]2CO)[C@H](O)[C@@H](O)[C@@H]1N[C@H]1C=C(CO)[C@@H](O)[C@H](O)[C@H]1O (stereo partly shown) | 1.89%
COC(=O)COc1ccc(S(=O)(=O)NCCC2=CCCCC2)cc1 | 12.4%
CCCc1nc(SCC(=O)N2CCN(c3ccccc3)CC2)c2c(=O)n(C)c(=O)n(C)c2n1 | 8.48%
COC(=O)c1ccc(Sc2ccc(F)cc2)c(N)c1 | 5.18%
COc1ccc(NC(=O)C2=Cc3ccccc3OC2)cc1 | 10.4%
CSc1ccc2[nH]c(=O)cc(C)c2c1 | 3.93%
O=C(NC1CCCCC1)c1ccc(NS(=O)(=O)c2cccc3cccnc23)cc1 | 12.5%
COc1ccc(NC(=O)Cn2c(=O)n(CC(=O)NCc3ccco3)c(=O)c3ccccc32)cc1 | 18.5%
COC(=O)CSC1=C(C#N)C(c2ccc(Cl)cc2)C(C(=O)OC)C(=O)N1 (stereo not shown) | 7.42%
O=C(Nc1cccc(F)c1)N1CCCCCC1 | 12%
Br.c1ccc(C2CNCc3c2ccc2ccccc32)cc1 (stereo not shown) | 1.84%
Cc1ccccc1NC(=O)c1cccc(NC(=O)c2ccccc2C(=O)O)c1 | 14.3%
COc1cccc(/C=C/c2[nH]c(=O)[nH]c(=O)c2[N+](=O)[O-])c1O | 0.313%
COc1ccc(-c2cn(Cc3ccc(C(=O)NCc4ccc(C)cc4)cc3)c(C(C)N)n2)cc1 (stereo not shown) | 7.87%
N#C/C(=C\c1cn(Cc2ccc(C#N)cc2)c2ccccc12)C(=O)NCc1cccs1 | 13.5%
COc1cccc(C(=O)c2cc3ccc(O)cc3oc2=O)c1 | -18.3%
CC(NC(=O)c1ccc2c(c1)OCCO2)C(=O)O (stereo not shown) | 2.86%
Cl.Clc1cccc(Nc2nc(N3CCOCC3)nc(N3CCOCC3)n2)c1 | 7.49%
